Test results taken from patent US20150266962A1.
Like-named read-outs stand apart in the source and are kept apart here.

Legend:
[1] = biological target: T1, human IL-13Rα2 on the surface of human tumour cell lines (human), Q14627; test: cell-based or functional assay
[2] = biological target: T1, human IL-13Rα2 on the surface of human …; test: cell-based or functional assay; remark: listed apart in the source

T1 sequence (Q14627 27-380): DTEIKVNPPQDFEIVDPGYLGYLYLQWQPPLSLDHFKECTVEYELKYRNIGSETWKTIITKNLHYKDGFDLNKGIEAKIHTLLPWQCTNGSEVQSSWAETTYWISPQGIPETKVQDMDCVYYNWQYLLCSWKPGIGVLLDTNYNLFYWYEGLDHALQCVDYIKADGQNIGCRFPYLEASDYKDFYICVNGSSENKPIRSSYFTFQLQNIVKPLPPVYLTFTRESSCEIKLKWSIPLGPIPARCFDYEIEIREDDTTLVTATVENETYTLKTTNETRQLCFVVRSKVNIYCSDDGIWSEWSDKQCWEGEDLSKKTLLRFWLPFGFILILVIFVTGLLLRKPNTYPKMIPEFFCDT

B1: hu08-mc-3377 antibody-drug conjugate (antibody)
heavy: EVQLVESGGGLVQPGGSLRLSCAASGFTFSRNGMSWVRQAPGKGLEWVATVSSGGSYIYYADSVKGRFTISRDNAKNSLYLQMNSLRAEDTAVYYCARQGTTALATRFFDVWGQGTLVTVSS[sequence of human IgG1 constant region not given]
light: DIQMTQSPSSLSASVGDRVTITCKASQDVGTAVAWYQQKPGKAPKLLIYSASYRSTGVPSRFSGSGSGTDFTLTISSLQPEDFATYYCQHHYSAPWTFGGGTKVEIKRTVAAPSVFIFPPSDEQLKSGTASVVCLLNNFYPREAKVQWKVDNALQSGNSQESVTEQDSKDSTYSLSSTLTLSKAAYEKHKVYACEVTHQGLSSPVTKSFNRGEC
modifications: here or on the partner: linker-payload mc-3377 on reduced cysteine residues (sites not given); linker-payload mc-3377 on reduced cysteine residues (sites not given); DAR 4.3 (Table 17), 3.5 (Table 28b)
With B1 the IC50 (ng Ab/mL), in vitro cytotoxicity, A375 [1] was 2.2 ng Ab/mL, the IC50 (ng Ab/mL), in vitro cytotoxicity, PC3MM2 [1] was 1.2 ng Ab/mL and the IC50 (ng Ab/mL), in vitro cytotoxicity, A375 [2] was 1.8 ng Ab/mL. It also gave an IC50 (ng Ab/mL), in vitro cytotoxicity, PC3MM2 [2] of 1.8 ng Ab/mL.
